The source of these data is PubChem BioAssay (NCI).

For the test, the system named is NCI-H322M lung. Briefly: NCI tumour cell line growth inhibition, 48 h.

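Tested at 5 concentrations; 48 h exposure; 96-well plates; endpoints linearly interpolated, else capped at highest concentration. The concentration for 50% growth inhibition is given as GI50. At the TGI there is no net growth.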

Turning to `N#Cc1cc(-c2ccc3ncnc(N4CCc5cc(F)c(Cl)cc54)c3c2)cnc1N`, the GI50 is 2.33 µM and the TGI was greater than 100 µM.
`CC(C)C[C@H](NC(=O)CNC(=O)C[C@H]1O[C@@H]2OC3(C)CC[C@H]4[C@H](C)CC[C@@H]([C@H]1C)[C@@]24O3)B(O)O`: the GI50 is 13.9 µM and the TGI stood at 43.1 µM.
For `CC(=O)Nc1ccc(-n2cnc3cc(-c4ccc(O)cc4)ccc32)cc1C(F)(F)F` the same measures were 14.2 µM and 48.6 µM.
For `COc1ccc2[nH]c(O)c(N=NC(=O)COc3ccc(NC(=O)Nc4ccc(Cl)c(Cl)c4)cc3)c2c1` the same measures were 2.42 µM and 11.5 µM.
Regarding `O=C(NO)c1ccc(-c2nc3ccc4[nH]ncc4c3c3c2CCCC3)cc1`, the GI50 is 0.133 µM and the TGI turned out to be 3.33 µM.
